# Measured values as given in PubChem BioAssay AID686979 (National Center for Advancing Translational Sciences (NCATS), 2013).
# “And” between values parts separate entries of the source, which are not always exact repeats. Equal entries are not always repeated. Among all 420,000 compounds or so, about 50,000 (12%) were called active. The inconclusive results got no clear call from the source; some entries with a clear call stand among them for comparison. The call rests on the fitted dose curve; in most records, active means well fitted inhibition curve with a large enough effect; inconclusive means small, poorly fitted or top-dose-only effect; inactive means flat fitted curve, though single readings scatter. Where the call is inconclusive, the potency comes from a doubtful curve fit.
# Assay: qHTS for Inhibitors of human tyrosyl-DNA phosphodiesterase 1 (TDP1): qHTS in cells in presence of CPT; further: nearly all actives have a fitted effect of over 55% in size
# Details: chicken DT40 Tdp1-/-;hTDP1 cells + 20 nM CPT, ATP luminescence, 48 h; activity change, negative = growth inhibition: at 46.2 µM (top of the series)
# Outline: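 Chicken DT40 Tdp1-/- cells complemented with human TDP1, 400 cells/well, exposed to compounds plus 20 nM camptothecin for at least 48 h at 37 C; viability read as ATP content by CellTiter-Glo luminescence.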
# On the % scale 0 is the no-effect control and ±100 the full control effect; potency means the concentration at half of the fitted maximal effect; tags describe the fitted curve by direction and shape.
Structure (SMILES),Potency,"activity change, negative = growth inhibition"
CCOC(=O)N1CCc2c(sc(NCc3cccc(F)c3)c2C(=O)Nc2ccc(OC)cc2)C1,"inconclusive: 16.4 µM [inhibitor, single point]",
OCc1nc2ccccc2n1CC(O)Cn1ccc2ccccc21 (stereo not drawn),active: 16.4 µM,
COc1cc(CNCc2ccccn2)ccc1OCc1cccc(Cl)c1,"inconclusive: 29.1 µM [inhibitor, single point]",
C=CCc1cccc(CNc2nc3ccccc3n2C(C)C)c1O,"inconclusive: 29.1 µM [inhibitor, single point]",
Cc1ccc(N(C)C(=O)c2ccc3c(Cl)c4c(nc3c2)CCC4)cc1C,"inconclusive: 20.6 µM [inhibitor, single point]",
Oc1[nH]c(=S)sc1/C=C1\C(c2ccccc2)=Nc2ccccc21,"inconclusive: 20.6 µM [inhibitor, single point]",
CC(=O)c1cccc(-c2ccnc3c2CC(C(=O)Nc2ccc(F)c(Cl)c2)O3)c1 (stereo not drawn),active: 18.4 µM,
CC(C)(C)c1ccc(C(=O)C2CCCN(C(=O)CCn3cncn3)C2)cc1 (stereo not drawn),"inconclusive: 20.6 µM [inhibitor, single point]",
COc1ccc(-c2nc3cccc(C)n3c2Nc2ccc(C)cc2)cc1,active: 20 µM,
COc1ccc(NC(=O)C2OCCc3ccccc32)c(OC)c1 (stereo not drawn),"inconclusive: 29.1 µM [inhibitor, single point]",
CCC1(c2ccccc2)NC(=O)N(CC(=O)NNC(=O)c2ccc(F)cc2)C1=O (stereo not drawn),inactive,
Cc1cc(OC(=O)c2ccccc2Br)cc(=O)n1C,active: 20.6 µM,
CCc1cc2c(-c3ccccc3)cc(=O)oc2cc1OCC(C)=O,"inconclusive: 18.4 µM [inhibitor, single point]",
COc1ccc(N(Cc2cccs2)C(=O)COc2cccc(C)c2C)cc1,"inconclusive: 29.1 µM [inhibitor, single point]",
Cn1c(=O)c(-c2ccc(F)cc2)nc2cnc(OCc3ccccc3)nc21,inactive,
N#Cc1ccc(Sc2nc3ccccc3[nH]2)cc1C#N,inactive,
Cc1ccc(OCc2cc(C(=O)N3CCC(c4ccccc4Cl)C3)no2)cc1C (stereo not drawn),"inconclusive: 29.1 µM [inhibitor, single point]",
Cc1cccc(CC(=O)N2CC(=O)Nc3ccc(C)cc3C2c2ccc(F)cc2)c1 (stereo not drawn),"inconclusive: 23.1 µM [inhibitor, single point]",
S=C(NCc1cccs1)Nc1cccc(Cl)c1,inactive,
CC1(C)Cc2ccccc2C(COc2ccccc2)=N1,"inconclusive: 29.1 µM [inhibitor, single point]",
CCN(CC)S(=O)(=O)c1ccc(N(C)C)c(NC(=O)CSCc2c(C)noc2C)c1,"inconclusive: 18.4 µM [inhibitor, single point]",
Cc1nnc(-c2ccc(Oc3ccc(Br)cc3)c([N+](=O)[O-])c2)o1,"inconclusive: 29.1 µM [inhibitor, single point]",

Structure (SMILES),Potency,"activity change, negative = growth inhibition"
Nc1nonc1-c1nc2ccccc2n1Cc1ccccc1,"inconclusive: 29.1 µM [inhibitor, single point]",
CC1(C)N=C(c2cccc(F)c2)C(=O)N1,inactive,
CCOc1ccc(-n2ccnc2SCC(=O)Nc2cccc3ccccc23)cc1,"inconclusive: 18.4 µM [inhibitor, single point]",
COc1cccc(N(CC(=O)NC2CCCC2)C(=O)Cn2nnc(-c3ccc(C)cc3)n2)c1,"inconclusive: 3.26 µM [inhibitor, full curve]",
COc1ccccc1NC(=O)NCCN1CCCCC1,inactive,
NNc1ccc2c(C(F)(F)F)cc(C(F)(F)F)nc2n1,"inconclusive: 18.4 µM [inhibitor, single point]",
O=C(CSc1nnc(Cn2nnc3ccccc32)o1)N(Cc1ccc(Cl)cc1)c1ccccc1,active: 7.31 µM,
CC(C)CN(Cc1cc(=O)oc2cc(-c3ccccc3)c(O)cc12)CC(C)C,"inconclusive: 29.1 µM [inhibitor, single point]",
Cc1ccnc(-n2c(C)cc(C=O)c2C)c1,"inconclusive: 6.51 µM [inhibitor, single point]",
CCOc1ccccc1NC(=O)C1CCN(c2ccc(S(=O)(=O)N3CCCC3)cc2)CC1,"inconclusive: 31.6 µM [inhibitor, single point]",
CCOC(=O)c1c(C)[nH]c(O)c1C=Nc1ccc(C(F)(F)F)cc1,"inconclusive: 29.1 µM [inhibitor, single point]",
CC1=N/C(=C\c2ccc([N+](=O)[O-])cc2)C(=O)N1c1ccc(F)cc1F,"inconclusive: 29.1 µM [inhibitor, single point]",
O=S1(=O)CCO[C@H]2Cc3ccccc3[C@H]2N1Cc1cccc(Cl)c1,"inconclusive: 25.1 µM [inhibitor, single point] and inconclusive: 25.9 µM [inhibitor, single point]",
COc1ccc(CCNC(=O)CCn2c(SCC#N)nc3ccccc3c2=O)cc1OC,,inconclusive: -32.8% [inhibitor]
N=c1c(S(=O)(=O)c2ccccc2)cc2c(=O)n3ccccc3nc2n1Cc1cccnc1,"inconclusive: 9.2 µM [inhibitor, partial curve]",
O=C(O)CCN1C(=O)/C(=C\c2ccncc2)SC1=S,"inconclusive: 20.6 µM [inhibitor, single point]",
O=C(c1ccc(CNS(=O)(=O)c2ccc(Br)cc2)cc1)N1CCCCC1,"inconclusive: 29.1 µM [inhibitor, single point]",
Cc1cccc(N2C(=O)CC(Sc3nc(-c4ccccc4)c4cc(Cl)ccc4n3)C2=O)c1 (stereo not drawn),"inconclusive: 29.1 µM [inhibitor, single point]",
CCOC(=O)[C@]12CCC=C1N(CCC1=CCCCC1)C(=O)[C@H](CC(=O)NCCCCc1ccccc1)C2,"inconclusive: 20.6 µM [inhibitor, single point]",
Cc1c(N=C2N=C(NC(=O)NC(C)(C)C)c3ccccc32)c(=O)n(-c2ccccc2)n1C,"inconclusive: 16.4 µM [inhibitor, single point]",
CCN1CCN(Cc2ccc(NC(=O)c3cc(NC(=O)C4=NN(c5ccccc5)C(=O)C4)cc(OC)c3)cc2C(F)(F)F)CC1,"inconclusive: 29.1 µM [inhibitor, single point]",
